Z-score data for 108 compounds are collected here from PubChem BioAssay AID488969 (Vanderbilt High Throughput Screening Facility, 2010).

The structures appear in SMILES notation. Over roughly 110,000 compounds, “z-score” has its median near -0.1; the highest 2% begin near 2. The list shows a part of the results. Active and inactive are the calls of the source.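 Rule for the calls: active = z-score in the third read window above 3 or below -3; inactive = the rest.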

In the assay the target is Metabotropic glutamate receptor 8 (Rattus norvegicus) (UniProt P70579). As to the kind of experiment: rat mGluR8 modulators via GIRK flux, primary screen, cell-based, thallium flux, HTS (AID 488969). The settings on record: HEK293 rat mGluR8, GIRK (G protein-gated inwardly rectifying potassium channel) thallium flux, FluoZin2; at 10 µM; stronger effect = higher value; submaximal glutamate (EC20) added with thallium.
UniProt P70579, sequence (P70579 whole entry, looked up): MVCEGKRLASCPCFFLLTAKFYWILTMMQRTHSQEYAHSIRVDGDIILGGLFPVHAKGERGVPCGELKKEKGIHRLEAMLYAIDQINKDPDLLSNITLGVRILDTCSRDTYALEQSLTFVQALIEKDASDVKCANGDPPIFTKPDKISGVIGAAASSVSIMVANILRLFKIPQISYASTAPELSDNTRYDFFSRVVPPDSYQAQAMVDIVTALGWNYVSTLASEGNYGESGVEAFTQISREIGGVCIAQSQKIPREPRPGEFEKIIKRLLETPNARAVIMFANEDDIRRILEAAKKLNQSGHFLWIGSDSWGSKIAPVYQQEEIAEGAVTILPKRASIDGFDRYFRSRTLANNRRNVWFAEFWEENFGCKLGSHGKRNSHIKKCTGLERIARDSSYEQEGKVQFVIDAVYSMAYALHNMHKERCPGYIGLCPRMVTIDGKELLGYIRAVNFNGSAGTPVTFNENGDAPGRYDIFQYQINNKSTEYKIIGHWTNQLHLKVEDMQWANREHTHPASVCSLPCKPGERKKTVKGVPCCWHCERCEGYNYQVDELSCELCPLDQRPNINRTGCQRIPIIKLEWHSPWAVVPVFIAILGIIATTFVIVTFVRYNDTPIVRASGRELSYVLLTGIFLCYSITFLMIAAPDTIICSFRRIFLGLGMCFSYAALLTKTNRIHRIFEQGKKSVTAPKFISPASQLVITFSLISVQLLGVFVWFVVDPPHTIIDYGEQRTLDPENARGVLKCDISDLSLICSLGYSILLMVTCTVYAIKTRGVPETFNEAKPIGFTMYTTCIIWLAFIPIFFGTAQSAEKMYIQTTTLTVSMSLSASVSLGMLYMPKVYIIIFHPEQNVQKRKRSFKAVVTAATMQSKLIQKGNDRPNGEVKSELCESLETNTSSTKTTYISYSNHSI
`CCOC(=O)c1ccc(NC2c3ncccc3C(=O)N2Cc2ccc(F)cc2)cc1` (stereo not drawn) displayed a z-score of -0.234.
As for `CC1CCc2sc(NC(=S)NC(=O)c3ccccc3)c(C#N)c2C1` (stereo not drawn), the figure is 0.0703; as for `CCCCCCSc1nnc(-c2cnn(-c3ccccc3)c2-n2cccc2)n1C`, -1.18; as for `O=C(c1cnn2c1NC(c1ccc(Br)cc1)CC2C(F)(F)F)N1CCN(C23CC4CC(CC(C4)C2)C3)CC1` (stereo not drawn), -0.105.
In the case of `Cc1cccc(S(=O)(=O)Nc2ccc(-c3cn4ccccc4n3)cc2)c1` it was -0.328.
As for `Cc1cccc(NC2=Nc3ccccc3N3C2=Nc2c(c(C)nn2-c2ccccc2)C3c2ccc(O)c(O)c2)c1` (stereo not drawn), the figure is -0.0241.
`COc1cc(/C=C2\OC(=O)c3c(OC)cccc32)ccc1O` showed a z-score of -0.195.
As for `CNC(=S)NNC(=O)c1cccc(C(F)(F)F)c1`, the figure is 1.83; as for `Cc1nc(Nc2ccncc2)c2oc3ccccc3c2n1`, 1.38.
In the case of `Cc1occc1C(=O)Nc1ccc2c(c1)OCO2` it was -0.0683; in that of `NC(=S)N/N=C/c1coc2cc(Cl)ccc2c1=O`, -0.289; in that of `Cc1ccc(Cc2nc(-c3ccccn3)no2)cc1`, 0.189.
`COCc1nc2sc(C)c(C)c2c(=O)[nH]1` gave a z-score of 0.603.
In the case of `CCOC(=O)CSc1nc2ccsc2c(=O)n1C1CCN(C(=O)OCC)CC1` it was -0.516; in that of `Cc1ccc(N2C(=O)c3n[nH]c(C)c3C2c2cccnc2)cc1` (stereo not drawn), -0.536; in that of `CCOC(=O)N1CCN(C(=O)c2ccccc2CCc2ccccc2)CC1`, -0.513.
In the case of `COc1ccc(S(=O)(=O)Nc2nncs2)cc1` it was -0.189.
As for `O=C(Nc1ccccc1Cl)NC1(C(=O)N2CCCCC2)CCCCC1`, the figure is 0.141; as for `Cc1ccsc1/C=N/n1c(-c2ccccn2)n[nH]c1=S`, -0.121; as for `COc1ccccc1OCCNC(=O)c1cccs1`, -0.0498.
Take `Cc1ccc(CCNC(=O)C2CCCN(S(=O)(=O)c3c(C)noc3/C=C/N(C)C)C2)cc1` (stereo not drawn): the z-score was -0.519.
`Cc1nnc(N(C)C(=O)Cc2ccc3c(c2)OCO3)s1` came in with a z-score of 0.0151.
In turn, `Cc1ccc(S(=O)(=O)N2CCN(c3nc(C(C)C)c4c(c3C#N)CC(C)(C)OC4)CC2)cc1` showed a z-score of -0.438.
On to `COc1ccc(CN=C2NC(=O)CC(C(=O)Nc3ccc(F)cc3)S2)cc1` (stereo not drawn), for which the z-score was -0.106.
The compound `COc1ccc(NC(=O)CN(c2cc(C)cc(C)c2)S(=O)(=O)c2c(C)n[nH]c2C)cc1` showed a z-score of -0.532.
Compound `O=C(NNc1cccc(Cl)n1)Nc1cccc(Cl)c1` returned a z-score of 0.158.
As for `COC(=O)c1ccc(Oc2nc(NC(C)C)nc(SC)n2)cc1`, the figure is -0.809; as for `COc1ccc2[nH]cc(C(=O)CN3CCN(C/C=C/c4ccccc4)CC3)c2c1`, 0.259.
As for `c1ccc2c(Nc3nnc(-c4ccncc4)s3)cccc2c1`, the z-score is active: 4.07.
In the case of `CC(=O)c1c(C)[nH]c(C(=O)COc2ccc(C#N)cc2)c1C` it was -0.0197.
As for `CCOc1ccccc1NC(C)C(=O)Nc1cc(C(F)(F)F)ccc1N1CCOCC1` (stereo not drawn), the figure is -0.267; as for `Cc1c(NC(=O)C2CCCN2S(=O)(=O)c2ccc(Cl)cc2)c(=O)n(-c2ccccc2)n1C` (stereo not drawn), -0.579; as for `COc1cc(C)ccc1OCCOCCOc1ccccc1[N+](=O)[O-]`, -0.274.
In the case of `NS(=O)(=O)c1ccc(CCNC(=S)Nc2ccccc2)cc1` it was -0.217; in that of `CC1(C)CC(=O)C2=C(C1)N(CCN1CCOCC1)C1=C(C(=O)CC(C)(C)C1)C2c1cccc(Cl)c1`, -0.714; in that of `COc1ccc(S(=O)(=O)N2CCC(NC(=O)OCc3c(Cl)cccc3Cl)CC2)cc1`, -0.28.
For `Cc1ccc(S(=O)(=O)N(C)CC(O)Cn2c3ccccc3c3ccccc32)cc1` (stereo not drawn), the z-score was -0.232.
As for `Cc1cc(C)c[n+](-c2nc3ccccc3nc2[N-]S(=O)(=O)c2cccs2)c1`, the z-score is -0.407.
As for `Cc1ccc(S(=O)(=O)/N=C2/NC(=O)/C(=C/c3cccnc3)S2)cc1`, the figure is 0.0604.
As for `c1ccc2cc(CN3CCOCC3)ccc2c1`, the figure is 0.71; as for `Cn1c(=O)c2c(ncn2CC(=O)OCC(=O)NC2CCCc3ccccc32)n(C)c1=O` (stereo not drawn), -0.0161.
As for `CCOC(=O)c1cnc(C(C)(C)C)[nH]c1=O`, the figure is -0.298; as for `CC(C)C(=O)OCC(=O)Nc1ccc2c(c1)CCC2`, -0.0865; as for `Cc1ccc(-c2cc(N)n(-c3ccc(C)cc3)n2)cc1`, -0.731.
Compound `Nc1ccc(O)c(-c2nc3ccccc3s2)c1` registered a z-score of 0.263.
`CC1=CC(=Nc2c(C)n(C)n(-c3ccccc3)c2=O)C=C(C)C1=O` had a z-score of 0.433.
As for `CCN(CC)S(=O)(=O)c1cccc(C(=O)N2CC(O)CC2C(=O)O)c1` (stereo not drawn), the figure is 0.56; as for `CC1=CCC2C(=O)N(C(C)c3ccccc3)C(=O)C2C1` (stereo not drawn), 0.21.
In the case of `COc1ccc(OC)c(C2N(c3cc(C)on3)C(=O)C3CCCN32)c1` (stereo not drawn) it was 0.389; in that of `CC(C)(C)SCCNC(=O)CN(c1ccc(F)c(Cl)c1)S(C)(=O)=O`, -0.242; in that of `CC1=C(C)CC(C(=O)Nc2cccc([N+](=O)[O-])c2)C(C(=O)O)C1` (stereo not drawn), -0.414.
As to `Cc1ccc(C(=O)CC(C(=O)O)n2ccc(C)n2)cc1` (stereo not drawn), the z-score was -0.0978.
`COc1cc(/C=C/C(=O)c2c(O)ccc3c(C)cc(=O)oc23)ccc1O` registered a z-score of -0.219.
With `Cc1ccc(O)c(CCc2ccccc2)n1`, the z-score was -0.325.
With `O=C(Nc1nnc(-c2ccc(Cl)cc2)o1)c1ccccc1Br`, the z-score was active: 5.35.
For the compound `C=C(C)CSc1nc(C)c(Cc2ccccc2)c(=O)[nH]1`, the z-score was -0.365.
As for `CC1CN(Cc2nc3c(c(=O)n(C)c(=O)n3C)n2Cc2ccccc2)CC(C)O1` (stereo not drawn), the figure is -0.162.
`O=C(Cn1c(SCC(=O)NC2CCCC2)nnc1-c1ccncc1)Nc1ccc2c(c1)OCO2` displayed a z-score of -0.0386.
The compound `CCOc1ccc(-c2nc(C)c(C(C)=O)n2O)cc1` returned a z-score of -0.288.
The compound `O=C(NOC(=O)c1ccccc1Cl)c1cccs1` came in with a z-score of -0.383.
`Cc1ccc(C)c(N(CC(=O)NCc2ccc3c(c2)OCO3)C(=O)CCC(=O)Nc2ccccn2)c1` registered a z-score of -0.166.
In the case of `Cc1nc2nc(CCc3ccccc3)nn2c(C)c1Cl` it was -0.237; in that of `Cn1cnnc1SCC(=O)Nc1ccc2nc(SCc3ccccc3)sc2c1`, 0.305; in that of `CC(=O)NC(Cc1ccccc1)C(=O)N1CCN(C(=O)c2cccs2)CC1` (stereo not drawn), 0.223.
As for `CCCC[N+](C)(C)CCC(=O)NC(C)(C)CS(=O)(=O)[O-]`, the figure is 1.2; as for `CNc1ccc(Br)cc(C(=O)/C=C/c2ccc(OC)cc2OC)c1=O`, -0.255; as for `CC(=O)Oc1ccc(C(=O)Nc2cc(C)ccc2NC(=O)COc2ccccc2)cc1`, -0.118.
For `CCC(C)(C)n1nnnc1C(c1ccccc1)N1CCN(C2CCCC2)CC1` (stereo not drawn), the z-score stood at 0.195.
`O=C(OCn1nnc2ccccc2c1=O)c1ccc2ccccc2n1` had a z-score of -0.354.
For the compound `O=c1nc2n(c3sc4c(c13)CCCC4)C(CBr)CS2` (stereo not drawn), the z-score was -0.8.
On to `Cc1cc(Cl)ccc1NC(=S)NCC(C)C`, for which the z-score was -0.0377.
In the case of `CCCCNC(=O)c1cnc2n(c1=O)CCS2`, the z-score is -0.697.
In the case of `Cc1c(N(C)C(=O)c2ccc3c(c2)OCO3)c(=O)n(-c2ccccc2)n1C` it was 0.0364.
For `CCCCNC(=O)CSc1nnc(Cc2ccccc2)n1CC`, the z-score was 0.173.
In the case of `COC(=O)CSc1nc(SCc2ccccc2Cl)nc2c1CCCC2` it was -0.0407; in that of `Cc1ccc(NC(=O)C2(NC(=O)c3cccc(N4C(=O)CSC4c4ccccc4)c3)CCCCC2)cc1` (stereo not drawn), -0.262; in that of `O=[N+]([O-])c1cc(S(=O)(=O)N2CCCC2)ccc1N/N=C/c1cccs1`, 0.337.
As for `COc1cc(N2CCCC2)c(OC)cc1/C=C(/C#N)c1ccc(Br)cc1`, the figure is -0.0363; as for `O=C1CC(=C2c3ccccc3-c3ccccc32)C(=O)N1CCN1CCN(c2cccc(Cl)c2)CC1`, -0.0614.
In the case of `CC1(C)CSC(=S)N1S(=O)(=O)c1ccccc1` it was 0.139; in that of `CCC1Oc2ccccc2N(CC(=O)Nc2ccc(OC)cc2OC)C1=O` (stereo not drawn), -0.129; in that of `COc1ccc(OC)c(C2CC(=O)N3CN(c4cccc(Cl)c4C)CSC3=C2C#N)c1` (stereo not drawn), -0.332.
As for `OC(COc1cccc2ccccc12)CN1CCCC1` (stereo not drawn), the z-score was -0.674.
As for `CCOC(=O)/C=C/C(=O)Nc1cccc([N+](=O)[O-])c1`, the figure is -0.53; as for `COc1cc(C2C(C#N)=C(N)Oc3cc(C)n(CCN4CCOCC4)c(=O)c32)cc(OC)c1OC` (stereo not drawn), -0.721; as for `O=C(N/N=C/c1ccc(O)c(O)c1O)/C(=C/c1ccc([N+](=O)[O-])cc1)NC(=O)c1ccccc1`, 0.321.
As for `COc1ccc(CCN2C(=O)C3C4CC(C5C(C(=O)N/N=C\c6ccc(Cl)cc6)=NOC45)C3C2=O)cc1OC` (stereo not drawn), the figure is -0.197; as for `CC(=O)OCCN(CCOC(C)=O)c1c(C)[nH]c(=O)[nH]c1=O`, 0.103; as for `O=C(c1oc(=O)c2ccccc2c1-c1ccccc1)N1CCC(O)CC1`, 0.0108.
As for `COc1ccc(NS(=O)(=O)c2ccc(NC(=O)c3cnn4c(C(F)F)cc(-c5ccc(C)cc5)nc34)cc2)cc1`, the figure is 0.268.
For the compound `CCOCCCNC(=O)C1CCN(S(=O)(=O)c2ccc(C)cc2)CC1`, the z-score was -0.101.
In the case of `COc1ccc(NC(=S)Nc2cc(-c3ccccc3)[nH]n2)cc1Cl`, the z-score was 0.00201.
In the case of `CC(C)(C)c1ccc(/C=N/NC(=O)Cc2c[nH]c3ccccc23)cc1` it was -0.159.
On to `N#Cc1c(NC(=O)Cn2nc(C(F)(F)F)c3c2CCCC3)sc2c1CCC2`, for which the z-score was -0.15.
In turn, `CC(=O)C1=C(C)NC(=O)NC1c1cc(Br)ccc1OCC(N)=O` (stereo not drawn) yielded a z-score of 0.636.
As to `COc1ccc(C(C(=O)NC2CCCC2)N(Cc2ccccc2)C(=O)CNC(=O)c2ccco2)cc1` (stereo not drawn), the z-score stood at 1.11.
In the case of `COc1cccc(C2(O)CCN(C(=O)C3CCC3)CC2)c1` it was -0.284; in that of `Cc1nn2c(NCC(C)C)c3c(nc2c1-c1ccccc1)CCC3`, -0.389.
As for `COC(=O)c1c(NC(=O)c2ccco2)sc2c1CCC2`, the figure is -0.464; as for `CCC(c1ccccc1)c1nc(-c2cccnc2)no1` (stereo not drawn), -0.533.
`N#Cc1c(N)sc(=S)c2c1CCCCC2` came in with a z-score of -1.62.
As for `Cc1cccc(NC(=O)CN2CCN(CC(=O)Nc3cccc(C)c3)CC2)c1`, the figure is 0.324; as for `O=C(Nc1cccnc1)c1ccccc1Oc1ccccc1`, -0.0244; as for `CN1C(=O)c2ccccc2OC1(C)Cc1ccccc1` (stereo not drawn), -0.354.
In the case of `Cc1cc(=O)oc2c(CN3CCCCC3)c(O)c(Cl)cc12` it was 0.27; in that of `CC1(NC(=O)CC[N+](C)(C)CCO)CS(=O)(=O)CC1S(=O)(=O)[O-]` (stereo not drawn), -0.364.
As for `CC(=O)N1CCc2cc(S(=O)(=O)NCCC(=O)N3CCN(Cc4ccccc4)CC3)ccc21`, the figure is -0.133; as for `COc1ccc(Nc2nnc(SCC(=O)/C=C3/N(C)c4ccccc4C3(C)C)s2)cc1`, -0.201.
